Source: the RNAGym collection of RNA variant scans (doi:10.7554/elife.90254)
The source gives no read counts; variants with many changes may rest on few reads.

B1: LINE1-full (parent)
chain: UACGUAGGUGGUUUUCCCCUGAUAGUGCUAAGGGGGCCUGGAAGUUUGGACUGGGCAGAGCUCAACACAGCGUGGCAAAGUGGCUGUGGCUAGACUGCCUCUCUGGAUUCCUCGUCACUCAGCAGGGCAUCUCUGAGAGAAAUGCC

Variants of: B1
Assay: self-cleavage, relative activity (ratio to wild type); higher = more cleavage; in vitro, sequencing; the parent is a self-cleaving ribozyme

Variant	self-cleavage
U23C A50G U132A	1.06
U23C A59G U62C U115G	0
U23C A59U U87A A107G	0.11
U23C A64G U81A A121G	0.28
U23C A67G A78G	0
U23C A67G G127U	0.88
U23C A69U U109A	0.05
U23C A77U U119A	1.77
U23C A78U A79G U100C U132C A142G	0
U23C A78U U81C A117G U134C	0
U23C A79G C113A	1.79
U23C A117U A129G A142G	2.16
U23C A124U A138G	0.79
U23C C28G U52A A94G	0.57
U23C C71A A77U A79G U87C C110U A136U	0.03
U23C C71U A136G	1.27
U23C C113U A129U A138U	1.33
U23C C120U A124U	2.13
U23C G34A U39A	1.07
U23C G34A U52A	0.81
U23C G34U A79G U115A U130C	1.24
U23C G35U U81C U134C A142G	2.3
U23C G53U U87A U96C	0.04
U23C G54A A57G A77G	0.1

Variant	self-cleavage
U23C G54A A59U	0.63
U23C G54A U87A	0.05
U23C G83A U102C	0.33
U23C U26A A79G	1.39
U23C U26C A141G	1.29
U23C U26C G75A	1.11
U23C U26C U47C	2.36
U23C U45C A129G	0
U23C U45C A136G	0
U23C U45C U62C	0
U23C U46C A129G	1.02
U23C U47A A136G	1.1
U23C U47G G126U	1.32
U23C U52A U62C C71U A121G	0.02
U23C U52C U85G	0
U23C U62A U96A U108C A124G	0.15
U23C U73C A124C	1.84
U23C U85A A121G	0.02
U23C U85A U104C	0.1
U23C U85C U102A	0.56
U23C U102A A141G	1.19
U23C U102C U119C G126A	2.53
U23C U108C U109C G137U	0.8
U23C U112C U119A	1.02

Variant	self-cleavage
U23C U115C A140G A141G	2.38
U23C U119C A129G	0.71
U23C U132A U143C	1.41
U23C U134C A138G	2.76
U23G A57U A67G G86A A140G	0.1
U23G A69U A136G	0.07
U23G C28A A59G A124G	0
U23G G34A A92U	1.07
U23G G34A U46G U102C	1.33
U23G U52A A67C A124U	0
A24C A67G A140G	0
A24C A67U U91C A129G	0
A24C A92U U102C U134G A141G	1.15
A24C A129G U130C	2.51
A24C U47A U85G G88A U96A U102C U132C	0.1
A24C U91C A117U U132A	0.8
A24G A31G A42G G97A A138U	0.47
A24G A31G U62C A129U	0.31
A24G A31U U132G	1.71
A24G A42G A43G	0.54
A24G A42G A50C A57G A117U C128U A141G	0
A24G A42G C71U U108C	1.96
A24G A42G U52C A59U U102C	1.53
A24G A42G U112A U132C	1.71

Variant	self-cleavage
A24G A42G U115C	1.31
A24G A43G A117C	0.85
A24G A43G A121G	1.23
A24G A43G C90U	0.14
A24G A43U U85C	0.46
A24G A50G A77G	1.67
A24G A50G G126A U143C	0.84
A24G A50G U62C U102C A129U	0
A24G A50U U112C	1.15
A24G A57G A69C	0
A24G A57G U96A A124G A138G	1.31
A24G A57U U112C G126U	0.22
A24G A57U U112C U130C	0.28
A24G A59U G105A A138G	1.04
A24G A64G U87G G125U	0.18
A24G A65U U100C U134G A140G	0.74
A24G A69G C128U A142G	0
A24G A69G U85G	0.33
A24G A77U C98A A107G U134A	0.84
A24G A77U U81A C123A	1.15
A24G A117G G122A	1.25
A24G A117U U143C	1.36
A24G A121C A141G	0.41
A24G C28A A79G G125U	0.9

Variant	self-cleavage
A24G C37G U130C U143C	1.31
A24G C37U A59G U115C	0.2
A24G C37U A77G U108C A136G	1.99
A24G C38U A77G U96C	0.11
A24G C51U A136G	0.93
A24G C56U A57G A124G	0.02
A24G C68U U102G A141G	0.24
A24G C71U A121G G139U	0.61
A24G C123U A140G	1.49
A24G G34A U46C U87C U119A A140U	0.35
A24G G36A G41A A64G A78G U100C U115C	0.23
A24G G36A U52C	1.03
A24G G36U A42G A57G U100A	0.38
A24G G53U A117G	1.15
A24G G105U A136G	1.42
A24G U26C A77U U108C	0.3
A24G U26C A140G A142G	0.6
A24G U26G A92G	0.66
A24G U29C U62C A69C	0
A24G U29G C38U G58U U96G	0
A24G U39C A117U	1.52
A24G U39C U52A A141C	1.05
A24G U45C U134A	1.53
A24G U45G A121U	0.68

Variant	self-cleavage
A24G U46A U47C A94U U115C	0
A24G U46C A64G A77G	0
A24G U46C A138G	0.84
A24G U46C U132C	2.94
A24G U47C A77G	2.22
A24G U47C U62C U91C	0
A24G U52A A59C	2.51
A24G U52A A59U C71A U115A	0.28
A24G U52C G55A	0.16
A24G U52C U85C	0
A24G U62A U96A	0.13
A24G U73A U85C C90G U130C	0.1
A24G U85A G97U U104C G114U U115A	0.05
A24G U85C A94G U104C C128U C145A	0
A24G U87G C95U A138U	0.18
A24G U115C U132C	1.41
A24G U134C A141G	2.63
A24U A57G U102C	1.34
A24U A59U U62A A136G U143C	0.14
A24U A69G U91C C111U A136G	0
A24U A77U U115A	0.77
A24U A78G U115C	0.96
A24U A79U A107G	2.76
A24U A124G A141G	1.75

Variant	self-cleavage
A24U A138G A140U	0.44
A24U C101U C131U U143C	1.06
A24U G27C A57G U130C A141U	1.84
A24U G32A A57G A79G	0.42
A24U G35A U100A	0.53
A24U G36U U109A	1.21
A24U G55A A77G	0.28
A24U G60A A67G U73C U102C	0
A24U U26C A59G	0.29
A24U U29A G33U	0.92
A24U U29C G55A A67G U115C A136G	0.22
A24U U39A U46C C103U U115C	1.19
A24U U39C U46C U73A	2.08
A24U U45C U52A A65U U96A A142G	0.02
A24U U45C U87C U143A	0
A24U U46A U112C	0.7
A24U U46C A64G	0.14
A24U U47G A69U	0.07
A24U U52A A78G A79G U108A U132C	1.53
A24U U62C U143C	0.14
A24U U102A A107G U109C	0.97
A24U U108C U109C U132A	1.09
A24U U115C U119C	1.65
